From PubChem BioAssay AID485364 (National Center for Advancing Translational Sciences (NCATS), 2010)
The whole screen tested about 360,000 compounds, of which about 11,000 (3.1%) were called active. Inconclusive means that the source gave no clear call. Such entries were picked first, then a sample of the others. The call rests on the fitted dose curve; in most records, active means well fitted inhibition curve with a large enough effect; inconclusive means small, poorly fitted or top-dose-only effect; inactive means no such curve, though single readings can be large or run the other way. Potencies of inconclusive entries are left out as doubtful fits.

Each compound was assayed against Schistosoma mansoni thioredoxin glutathione reductase (TGR) (UniProt Q962Y6) (assay: qHTS Assay for the Inhibitors of Schistosoma Mansoni Peroxiredoxins). Conditions: purified TGR, DTNB reduction, TNB absorbance 405 nm; activity change, negative = inhibition: at 114 µM (top of the series) unless noted.
Procedure, shortened: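 Kinetic colorimetric format: TGR-catalysed, NADPH-driven DTNB reduction monitored via TNB absorbance. Enzyme dispensed at 20 nM; compound exposure 15 min at room temperature before reaction start.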
Further: nearly all actives have a fitted effect of over 60% in size.
On the % scale 0 is the no-effect control and ±100 the full control effect; potency means the concentration at half of the fitted maximal effect; tags describe the fitted curve by direction and shape.

Row | Structure (SMILES) | Potency | activity change, negative = inhibition
1 | COC(=O)c1ccc(NC(=O)c2cccc(C)c2)cc1 | active: 89.1 µM | –
2 | CCOC(=O)CSC1=C(C#N)C(c2ccc(Cl)cc2)CC(=O)N1 (stereo not drawn) | inconclusive [inhibitor, partial curve, poor fit] | –
3 | CC(=O)c1cccc(NC(=O)CNC(=O)Cc2ccccc2)c1 | inconclusive [inhibitor, single point] | –
4 | CN1N=C(C(C)(C)C)CSC1=Nc1ccc(F)cc1 | – | inactive: -1.03%
5 | COc1cccc(/C=C2\SC(=S)N(CCC(=O)Nc3ccc(O)cc3)C2=O)c1 | – | inactive: -0.984%
6 | O=C(NCc1ccc(Cl)cc1)C(=O)NCC(c1cccs1)S(=O)(=O)c1cccs1 (stereo not drawn) | inconclusive [inhibitor, partial curve] | –
7 | CNC(=O)c1c(NC(=O)C(C)C)sc2c1CCC2 | active: 44.7 µM | –
8 | CCN(c1ccccc1)c1nc(=O)c2cccnc2s1 | – | inactive: 4.96%
9 | N#Cc1cccc(Nc2c3c(nc4ccccc24)CCCC3)c1 | inconclusive [inhibitor, single point] | –
10 | Nc1ccc(CCS(N)(=O)=O)cc1 | inconclusive [inhibitor, full curve] | –
11 | COc1ccc(NC(=O)CCC(=O)Nc2nnc(C(C)C)s2)cc1Cl | inconclusive [inhibitor, single point] | –
12 | O=C(N/N=C/c1ccccn1)c1cccs1 | – | inactive: 1.64%
13 | Nn1c(SCc2cccc(C(F)(F)F)c2)nnc1-c1ccco1 | inconclusive [inhibitor, full curve, poor fit] | –
14 | O=S(=O)(c1ccc(Cl)cc1)c1nc(-c2ccco2)oc1N1CCCCC1 | active: 14.1 µM | –
15 | CC(=O)c1cccc(NC(=O)CN2CCc3cc4c(cc3C2C)OCCCO4)c1 (stereo not drawn) | inconclusive [inhibitor, full curve, poor fit] | –
16 | CSc1nnc(C)c(=O)n1COC(=O)/C=C/c1ccc2c(c1)OCO2 | active: 25.1 µM | –
17 | COC(=O)c1cccnc1-n1c(=O)c2cccnc2n(CC(=O)Nc2ccccc2F)c1=O | – | inactive: 5.94%
18 | O=C(O)CC1=C(O)C(=O)N(c2ccccc2)C1c1ccc(Br)cc1 (stereo not drawn) | inconclusive [inhibitor, partial curve] | –
19 | COc1cccc(-n2cnnc2SC(C)C(=O)NC2CCCC2)c1 (stereo not drawn) | active: 50.1 µM | –
20 | Cc1cc(NC(=O)CSc2ccc3ccccc3c2)no1 | inconclusive [inhibitor, full curve] | –
21 | O=C(c1ccco1)N1CCN(C(=O)c2ccc(COc3ccc4c(c3)CCC4)o2)CC1 | inconclusive [inhibitor, partial curve] | –
22 | CCCc1nc2c(=O)n(C)c(=O)nc-2n(C)n1 | inconclusive [inhibitor, full curve] | –
23 | Cc1cc(NC(=O)c2cccc(Cl)c2)ccc1-c1cc2ccccc2oc1=O | – | inactive: 8.29%
24 | CCOC(=O)C1=C(C)OC(N)=C(C#N)C1c1cccs1 (stereo not drawn) | inconclusive [inhibitor, full curve] | –
25 | Cc1ccc(CNC(=O)c2coc(=O)c3ccccc23)o1 | inconclusive [inhibitor, full curve] | –

Row | Structure (SMILES) | Potency | activity change, negative = inhibition
26 | O=C(CCc1nnc2ccc(NCc3ccco3)nn12)N1CCN(c2ccccc2)CC1 | inconclusive [inhibitor, partial curve] | –
27 | COc1ccccc1[N+](=O)[O-] | inconclusive [inhibitor, partial curve] | –
28 | Cc1oc(C)c2c(=O)cc(-c3ccc4c(c3)OCO4)cc(OC(=O)c3cccc(Br)c3)c12 | inconclusive [inhibitor, partial curve] | –
29 | Cc1cccc(C)c1OCC(=O)Nc1c(C)nn(C)c1C | – | inactive: -14%
30 | CN1CCN(CC(=O)c2ccccc2F)CC1 | active: 11.2 µM | –
31 | Cn1ccnc1Sc1cc(NCCCO)c([N+](=O)[O-])c2nonc12 | active: 0.708 µM | –
32 | CC(=NCCN1CCCCC1)c1c(O)[nH]c(=O)[nH]c1=O | inconclusive [inhibitor, single point] | –
33 | O=S(=O)(Nc1nc2ccccc2nc1Cl)c1ccc(F)cc1 | inconclusive [inhibitor, partial curve] | –
34 | Brc1ccc(C=Nc2ccc(Nc3ccccc3)cc2)s1 | inconclusive [inhibitor, partial curve] | –
35 | O=C(Nc1cccc([N+](=O)[O-])c1)c1ccc2nc(N3C(=O)CCC3=O)sc2c1 | inconclusive [inhibitor, single point] | –
36 | COc1ccc(Nc2cc(C(=O)N3CCc4ccccc4C3)c3ccccc3n2)c(OC)c1 | – | inactive: 14.1%
37 | Cc1cccc(N(C)C(CNS(=O)(=O)c2ccccc2)c2ccccc2)c1 (stereo not drawn) | – | inactive: 0.507%
38 | Cc1oc(-c2ccc(Cl)cc2)cc1C(=O)/C(C#N)=C/Nc1ccccc1 | inconclusive [inhibitor, partial curve] | –
39 | Cc1ccc(S(=O)(=O)NCCC(=O)Nc2ccc3c(c2)OCO3)cc1 | inconclusive [inhibitor, single point] | –
40 | Cc1ccc(NC(=O)CC2SC3=NCCN3C2=O)cc1 (stereo not drawn) | active: 7.94 µM | –
41 | COc1ccc(C2(C(=O)c3ccccc3)C(=O)c3ccccc3C2=O)cc1 | inconclusive [inhibitor, full curve, poor fit] | –
42 | CCOC(=O)c1ccc(CSc2n[nH]c(C)n2)o1 | inconclusive [inhibitor, partial curve] | –
43 | COc1cccc(CNC(=O)c2ccc(C)c(NC3=NC4CS(=O)(=O)CC4S3)c2)c1 (stereo not drawn) | – | inactive: -16.1%
44 | COc1ccc(N2CCN(CC(=O)c3ccc(O)cc3O)CC2)cc1 | inconclusive [inhibitor, partial curve] | –
45 | C=CCNC(=O)C1CC(=O)N(c2ccc(Br)cc2)C1 (stereo not drawn) | inconclusive [inhibitor, single point] | –
46 | CCOC(=O)C1=C(c2ccccc2)OC(N)=C(C#N)C1c1ccc(Br)s1 (stereo not drawn) | active: 39.8 µM | –
47 | Cc1ccc(Nc2ccc([N+](=O)[O-])nc2[N+](=O)[O-])cc1 | active: 44.7 µM | –
48 | Cc1ccccc1-c1nc2cc(NC(=O)C3CC3)ccc2o1 | inconclusive [inhibitor, partial curve, poor fit] | –
49 | CCOC(=O)C1=C2SCC(=O)N2C(N)=C(C#N)C1 | inconclusive [inhibitor, full curve, poor fit] | –
50 | COc1ccc(C2C3=C(CC(C)(C)CC3=O)Nc3c2c(=O)[nH]c(=O)n3Cc2ccccc2)cc1OC (stereo not drawn) | – | inactive: -28.1%

Row | Structure (SMILES) | Potency | activity change, negative = inhibition
51 | COCCCNC(=O)COc1ccc(Cl)c(C)c1 | – | inactive: -0.83%
52 | COc1ccc(-c2nnc(SC(C)C(=O)Nc3cccc(Cl)c3)o2)cc1 (stereo not drawn) | – | inactive: -29.6%
53 | NCCCn1c(C(=O)c2cc(Cl)c(N)c(Cl)c2)c2ccc([N+](=O)[O-])cc2[n+]1[O-] | active: 39.8 µM | –
54 | CCN(CC)c1ccc(NC(=O)/C=C/c2cc(Br)ccc2OC)cc1 | – | inactive: -8.33%
55 | CCc1ccc(N(C(=O)CCC(=O)Nc2cc(C)on2)C(C(=O)NC(C)(C)C)c2ccc(OC)cc2)cc1 (stereo not drawn) | – | inactive: -1.33%
56 | CCN(CC)CCN(C(=O)CCS(=O)(=O)c1ccccc1)c1nc2c(C)cc(C)cc2s1 | inconclusive [inhibitor, partial curve] | –
57 | O=C(N/N=C/c1cc2ccccc2nc1Cl)/C(=C/c1cccs1)NC(=O)c1ccccc1 | inconclusive [inhibitor, single point] | –
58 | C=C(C)COc1ccc(-c2[nH]ncc2-c2ccccc2OC)c(O)c1 | – | inactive: -31.6%
59 | Clc1cccc(CSc2nncn3c2cc2sccc23)c1 | – | inactive: 1.4%
60 | CCN=C1SC(C(=O)Nc2cccc(C(=O)O)c2)CC(=O)N1CC (stereo not drawn) | inconclusive [inhibitor, partial curve] | –
61 | O=c1ccc(-c2ccc(S(=O)(=O)Nc3cccc(F)c3)o2)n[nH]1 | inconclusive [inhibitor, partial curve, poor fit] | –
62 | CCOc1cccc(C2Nc3ccccc3-c3cc(C)nn32)c1O (stereo not drawn) | inconclusive [inhibitor, single point] | –
63 | COc1ccc(C(=O)COC(=O)C(CCCCN2C(=O)C3C4C=CC(C4)C3C2=O)N2C(=O)C3C4C=CC(C4)C3C2=O)cc1 (stereo not drawn) | inconclusive [inhibitor, partial curve] | –
64 | CCN(CC)CCN(Cc1cc2cc3c(cc2[nH]c1=O)OCCO3)C(=S)NCCCOC | inconclusive [inhibitor, partial curve] | –
65 | CCOC(=O)C1=C(COC(=O)CCOc2ccc(C)cc2)NC(=O)NC1C (stereo not drawn) | inconclusive [inhibitor, partial curve] | –
66 | Cc1c(NC(=O)COc2c(F)c(F)c(F)c(F)c2F)c(=O)n(-c2ccccc2)n1C | inconclusive [inhibitor, partial curve] | –
67 | Cc1ccc(C(=O)c2oc3ccccc3c2NC(=O)Cc2coc3cc(C)ccc23)cc1 | – | inactive: -2.34%
68 | CCOc1cccc(=O)c2c(C)n(C)c(C)c12 | inconclusive [inhibitor, partial curve] | –
69 | CCCCC(=O)Nc1cccc(-c2nc3ncccc3o2)c1C | inactive | –
70 | Cc1nn(CC(=O)N2CCOCC2)c(=O)c2ccccc12 | inconclusive [inhibitor, single point] | –
71 | C=CCN1C(=O)NC(=O)/C(=C/c2ccc(N(C)C)c(Br)c2)C1=O | inconclusive [inhibitor, full curve, poor fit] | –
72 | O=C(Nc1ccc(N2CCCC2)cc1)c1cc2ccccc2o1 | – | inactive: -24.6%
73 | O=c1[nH]c2ccc(NC(=S)NCCc3ccccc3)cc2[nH]1 | inconclusive [inhibitor, full curve] | –
